# Out of some 280,000 compounds screened, about 100 (0.036%) were called active. Inconclusive means that the source gave no clear call. Such entries were picked first, then a sample of the others. Calls come from the whole dose curve; as a rule, active = well fitted inhibition curve with a large enough effect in the signal ratio, with a control signal flat (not every such curve was filed as active); inconclusive = small, poorly fitted or top-dose-only effect, or effect the other way, or a change in a side signal; inactive = no such curve, though single readings can be large or run the other way; the % refers to the signal ratio. Potencies of inconclusive entries are doubtful fits and often do not repeat. A note “side channel” means that the fit belongs to a control or component signal, not to the main read-out.
# Target: Muscleblind-like protein 1 (Homo sapiens) (UniProt Q9NR56)
# Assay: qHTS Assay for Inhibitors of MBNL1-poly(CUG) RNA binding
# Conditions: TR-FRET MBNL1-His/biotin-(CUG)12 binding, 665/545 ratio; activity change, negative = inhibition: at 57.5 µM (top of the series)
# In short: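 MBNL1-His + Biotin-(CUG)12, cpd titration 92 nM–58 uM; Tb anti-His Ab 0.055 ng/ul, SA-XL665 5 nM (final); 60 min RT; ratiometric 665/545 nm, Ex 340 nm; normalized to buffer and full-complex controls.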
# % is set by controls: 0 for no effect and ±100 for the full control effect; potency is the fitted concentration of half-maximal effect; tags give direction and shape of the fitted curve or compound fluorescence and quenching.
# Sequence of UniProt Q9NR56 (Q9NR56 whole entry, looked up): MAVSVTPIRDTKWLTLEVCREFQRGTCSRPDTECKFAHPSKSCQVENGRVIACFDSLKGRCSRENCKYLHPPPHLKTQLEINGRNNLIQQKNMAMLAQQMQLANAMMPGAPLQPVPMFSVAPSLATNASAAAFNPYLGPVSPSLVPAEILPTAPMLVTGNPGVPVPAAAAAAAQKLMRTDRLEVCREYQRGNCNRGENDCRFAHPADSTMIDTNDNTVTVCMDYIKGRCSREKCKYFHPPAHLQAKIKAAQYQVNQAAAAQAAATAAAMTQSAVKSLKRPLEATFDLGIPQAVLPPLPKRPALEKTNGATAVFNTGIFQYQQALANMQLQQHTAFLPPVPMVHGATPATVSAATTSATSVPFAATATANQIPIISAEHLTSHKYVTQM
Structure (SMILES),Potency,"activity change, negative = inhibition"
O=C(CCN1C(=O)/C(=C/c2ccco2)SC1=S)Nc1ccc(O)cc1C(=O)O,"inconclusive: 28.2 µM [quencher, side channel, single point]",
O=C(CSc1nc2ncc(Br)cc2[nH]1)c1cccc([N+](=O)[O-])c1,"inconclusive: 35.5 µM [quencher, side channel, single point]",
Cc1n[nH]c(=O)nc1N/N=C/c1cccs1,"inconclusive: 28.2 µM [quencher, partial curve]",
COc1cccc(/C=C2\SC(=S)N(CCCC(=O)N3CCCCC3CCO)C2=O)c1 (centres undefined),"inconclusive: 31.6 µM [quencher, side channel, single point]",
O=C(NC(Cc1ccccc1)C(=O)O)/C(=C/c1ccc([N+](=O)[O-])cc1)NC(=O)c1ccco1 (centres undefined),"inconclusive: 3.16 µM [quencher, side channel, full curve]",
CCOC(=O)c1c(NC(=O)c2cnn3c2NC(c2cccc(OC)c2)CC3C(F)(F)F)sc2c1CCCC2 (centres undefined),"inconclusive: 1.78 µM [quencher, side channel, partial curve]",
COc1ccc(NC(=O)NCCCN2CCCC2=O)cc1,,inactive: -4.71%
COc1ccc2cc3c(N)c(C(=O)NCc4ccco4)sc3nc2c1,"inconclusive: 12.6 µM [quencher, side channel, partial curve]",
COc1cccc(-c2nnc(-c3ccco3)o2)c1,,inactive: 6.83% [at 11.5 µM]
COc1cccc(-c2[nH]nc3c2C(c2ccc(C)o2)C(C#N)=C(N)O3)c1 (centres undefined),"inconclusive: 39.8 µM [quencher, side channel, single point]",
Cc1cc(C)n(-c2nnc(Cl)c3ccccc23)n1,,inactive: -5.04%
O=[N+]([O-])c1ccc(N2CCN(c3ccc(O)cc3)CC2)c(Cl)c1,"inconclusive: 5.01 µM [quencher, side channel, full curve]",
CCn1c(-c2ccc(C(C)(C)C)cc2)n[nH]c1=S,,inactive: -10.5%
O=C1C(C=NC2CC2)=C(O)c2ccccc21,"inconclusive: 35.5 µM [quencher, side channel, single point]",
COc1ccc2[nH]c(C(=O)N3CCN(Cc4ccccc4)CC3)cc2c1OC,"inconclusive: 39.8 µM [quencher, side channel, single point]",
COc1cccc(-c2nnc(SCC(N)=O)n2-c2ccc(Cl)cc2)c1,"inconclusive: 39.8 µM [inhibitor, single point]",
CC1C/C(=N/Nc2nc3ccccc3[nH]2)CC(C)(C)C1 (centres undefined),"inconclusive: 4.47 µM [quencher, side channel, single point]",
O=C(CC1OCC2CCCN2C1=O)Nc1ccc([N+](=O)[O-])cc1 (centres undefined),"inconclusive: 15.8 µM [quencher, side channel, partial curve]",
CCOC(=O)Cc1csc(NC(=O)c2cc3ccccc3o2)n1,"inconclusive: 25.1 µM [quencher, side channel, partial curve]",
Oc1c(C(c2ccc(Cl)cc2)N2CCCC2)cc(Cl)c2cccnc12 (centres undefined),,inactive: -5.37%

Structure (SMILES),Potency,"activity change, negative = inhibition"
O=C(NCc1ccc(Cl)cc1)c1n[nH]c([N+](=O)[O-])c1Cl,"inconclusive: 25.1 µM [quencher, side channel, single point]",
Cc1nn(C)c(C)c1C1C(C#N)=C(N)OC2=C1C(=O)CC(C)(C)C2 (centres undefined),"inconclusive: 79.4 µM [inhibitor, partial curve]",
O=C(C1CCN(S(=O)(=O)c2cccs2)CC1)N1CCCCC1,"inconclusive: 2.82 µM [quencher, side channel, full curve]",
CCCCSc1nnc2c(n1)OC=Nc1ccccc1-2,"inconclusive: 14.1 µM [quencher, side channel, partial curve]",
c1cn2c(Nc3ccc4c(c3)OCCO4)c(-c3ccc(N4CCOCC4)cc3)nc2cn1,"inconclusive: 20 µM [quencher, side channel, partial curve]",
N#C/C(=N\Nc1ccccc1)C(=N)N1CCCCC1,"inconclusive: 31.6 µM [quencher, side channel, single point]",
Cn1c(SCC(=O)NCc2ccco2)nnc1C1CCCC1,,inactive: -5.45%
CC(Oc1ccccc1)C(=O)Nc1cccc([N+](=O)[O-])c1 (centres undefined),"inconclusive: 22.4 µM [quencher, side channel, partial curve]",
Cc1ccc(C)c(NC(=S)N/N=C/C(C)c2ccccc2)c1 (centres undefined),,inactive: -3.69%
COC(=O)c1cc2c(ccn2-c2ccc(F)cc2)n1Cc1ccc(C#N)cc1,"inconclusive: 11.2 µM [fluorescent, side channel, partial curve, poor fit]",
CN(C)c1ccc(/C=N/Nc2ccc(-n3ccnc3)nn2)cc1,"inconclusive: 17.8 µM [quencher, single point]",
CCOC(=O)/C=C/C(=O)OCC(=O)Nc1ccc([N+](=O)[O-])cc1,"inconclusive: 31.6 µM [quencher, side channel, partial curve]",
Cc1ccc2nc(/C(C#N)=C\c3ccc([N+](=O)[O-])o3)[nH]c2c1,,inactive: -8.64%
COc1ccc(NC2CC(=O)N(c3cccc([N+](=O)[O-])c3)C2=O)cc1 (centres undefined),"inconclusive: 12.6 µM [quencher, side channel, partial curve]",
C=C(C)C(=O)Oc1ccc(N2C(=O)CCC2=O)cc1,,inactive: 2.31%
CC(=O)Nc1ccc(Nc2ccc(N3C(=O)CCCC3=O)cc2[N+](=O)[O-])cc1,"inconclusive: 7.08 µM [quencher, side channel, partial curve]",
COc1ccc(-c2cn3c(C)c(C(=O)NCCN4CCOCC4)sc3n2)cc1,,inactive: -21%
CC(=N\NC(=O)c1ccc([N+](=O)[O-])cc1)/C(=N/O)C(=O)Nc1ccccc1,"inconclusive: 35.5 µM [quencher, side channel, single point]",
Cc1c(NC2=C(Cl)C(=O)N(c3ccccc3)C2=O)c(=O)n(-c2ccccc2)n1C,"inconclusive: 28.2 µM [quencher, side channel, single point]",

# From PubChem BioAssay AID2675 (National Center for Advancing Translational Sciences (NCATS), 2010)
